Assay results reported in PubChem BioAssay AID624417 (National Center for Advancing Translational Sciences (NCATS), 2012).
The campaign covered roughly 410,000 compounds. About 6,400 (1.6%) were called active. The shares of active, inactive and inconclusive entries below differ from those in the screen. Calls follow the shape of the dose curve; as a rule, active = well fitted inhibition curve with a large enough effect; inconclusive = small, poorly fitted or top-dose-only effect; inactive = no such curve, though single readings can be large or run the other way. No potency is given beside an inconclusive call; the fits are too rough.
% is scaled to controls: 0 for no effect and ±100 for the full control effect; potency is read from the fitted curve at half-maximal effect; tags tell the direction and shape of the fitted curve.
Also: nearly all actives have a fitted effect of over 55% in size.

What follows are molecules tested against Glucagon-like peptide 1 receptor (Homo sapiens) (UniProt P43220) (assay: qHTS of GLP-1 Receptor Inverse Agonists (Inhibition Mode)). Settings: HEK293 GLP-1R CRE-luciferase, luminescence, 24 h, GLP-1R form is constitutively active; activity change, negative = inhibition: at 38.3 µM (top of the series) unless noted.
Sequence of UniProt P43220 (P43220 whole entry, looked up): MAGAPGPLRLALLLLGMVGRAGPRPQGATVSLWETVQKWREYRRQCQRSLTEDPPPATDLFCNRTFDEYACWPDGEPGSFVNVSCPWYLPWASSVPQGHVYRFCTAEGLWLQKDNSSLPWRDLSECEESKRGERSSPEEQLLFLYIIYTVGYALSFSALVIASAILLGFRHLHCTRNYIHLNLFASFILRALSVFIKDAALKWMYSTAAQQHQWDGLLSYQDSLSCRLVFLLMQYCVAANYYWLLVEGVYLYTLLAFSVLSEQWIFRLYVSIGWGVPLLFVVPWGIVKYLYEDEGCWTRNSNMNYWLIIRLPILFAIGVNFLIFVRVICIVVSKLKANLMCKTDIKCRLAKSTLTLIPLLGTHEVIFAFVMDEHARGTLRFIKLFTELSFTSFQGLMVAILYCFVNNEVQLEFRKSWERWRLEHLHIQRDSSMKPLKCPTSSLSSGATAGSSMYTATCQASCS
Procedure, shortened: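 Stable HEK293 clone (constitutively active GLP-1R + cAMP-response luciferase); 200 cells/uL plated, 12 h pre-culture, compound 24 hr, 37 deg C/5% CO2; detection reagent 12 min RT; luminescence.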
In the case of `COC(=O)/C(=C\C(=O)c1ccccc1)Nc1cccc(C(F)(F)F)c1`, the “activity change, negative = inhibition” value is reported as inactive: 1.6%. In the case of `CCN1CCN(CCC(=O)Nc2ccccc2OC)CC1`, the “activity change, negative = inhibition” value is reported as inactive: 2.46%. With `CCCCCCN1C[C@@H](O)[C@H](n2cc(C3CC3)nn2)C[C@@H]1c1ccc(Cl)cc1` the Potency was inconclusive [inhibitor, single point]. With `Cc1cc(C(=O)COC(=O)c2ccc(O)cc2)c(C)n1CC(F)(F)F` the Potency was inconclusive [inhibitor, single point]. `Cc1cccc(NC(=O)c2sc3nc4c(cc3c2N)CN(Cc2ccccc2)CC4)c1` was tested, and the Potency was inconclusive [inhibitor, single point]. In the case of `N#Cc1ccc(C(=O)Nc2ccn(-c3ccccc3)n2)cc1`, the Potency is reported as inconclusive [inhibitor, single point]. With `COc1ccc(OC)c(NC(=O)C(CC(=O)O)NCc2ccco2)c1` (configuration not stated) the “activity change, negative = inhibition” value was inactive: 0.0447%. `Cc1ccc(Cn2c(C)c(C(=O)NCc3ccccc3C(F)(F)F)sc2=O)cc1` was tested, and the Potency was inconclusive [inhibitor, partial curve, poor fit]. In the case of `Cc1cccc(NC(=O)Cc2ccc(-c3ccccc3)cc2)n1`, the Potency is reported as inconclusive [inhibitor, single point]. With `CN(C)CCNS(=O)(=O)c1ccc(N2CCc3ccccc32)c([N+](=O)[O-])c1` the Potency was inconclusive [inhibitor, partial curve, poor fit]. `COCCCn1c(SCCc2ccccc2)nc2cc(OC)c(OC)cc2c1=N` was tested, and the Potency was inconclusive [inhibitor, partial curve, poor fit]. `COc1ccc(C(CNC(=O)c2oc3ccc(C)cc3c2C)N2CCCCC2)cc1` (configuration not stated) was tested, and the Potency was inconclusive [inhibitor, full curve, poor fit]. For `COc1cc(/C=N/Nc2ccc(S(N)(=O)=O)cc2[N+](=O)[O-])cc(OC)c1O`, the “activity change, negative = inhibition” value was inactive: 6.68%. With `CC1(c2ccccc2)CC(C)(C)N(C(=O)CSc2nnc(N)s2)c2ccccc21` (configuration not stated) the Potency was inconclusive [inhibitor, single point]. For `CCCCOc1ccc(C(=O)N2CCCCCC2)cc1`, the Potency was inconclusive [inhibitor, partial curve, poor fit]. In the case of `Cc1ccc(-c2nnc(SCC(=O)NC3CCCC3)n2C)cc1`, the “activity change, negative = inhibition” value is reported as inactive: 6.72%. In the case of `CCC1=NN(C(=O)c2ccccc2Br)C(O)(c2ccc(Br)cc2)C1` (configuration not stated), the Potency is reported as inconclusive [inhibitor, full curve, poor fit]. In the case of `CC(=O)Oc1ccc(C2(C)CC(C)(C)Oc3cc(OC(C)=O)ccc32)c(OC(C)=O)c1` (configuration not stated), the Potency is reported as inconclusive [inhibitor, single point]. For `S=C(Nc1ccccc1)Nc1nc2ccccc2n1CCOc1ccc(Cl)cc1`, the Potency was inconclusive [inhibitor, single point]. For `COCCNc1nc(NCc2ccc(C(C)C)cc2)c2sccc2n1`, the Potency was inconclusive [inhibitor, partial curve, poor fit]. For `COc1cccc(NC(=O)Nc2ccc3nsnc3c2)c1`, the Potency was inconclusive [inhibitor, single point]. In the case of `COc1ccccc1N(Cc1ccccc1)S(=O)(=O)c1cccc(C(=O)N2CCCCC2)c1`, the Potency is reported as inconclusive [inhibitor, single point]. `CC(Oc1ccc(F)cc1)C(=O)Nc1cc(-c2ccc(F)c(F)c2)no1` (configuration not stated) was tested, and the Potency was inconclusive [inhibitor, single point]. `Cc1ccc(C2CC(c3ccc(Cl)cc3)=NNC2=O)cc1` (configuration not stated) was tested, and the Potency was inconclusive [inhibitor, single point]. For `C=CCn1c(NCc2c[nH]c3ccccc23)nc2ccccc21`, the Potency was inconclusive [inhibitor, single point]. For `O=C(Nc1cccc(O)c1)c1cc(-c2cccs2)on1`, the Potency was inconclusive [inhibitor, single point]. `Cc1ccc(S(=O)(=O)NCC2CCC(C(=O)N(C)Cc3ccccc3)CC2)cc1` (configuration not stated) was tested, and the Potency was inconclusive [inhibitor, partial curve]. With `CSCC[C@H](NC(=O)N1CCn2c1nc1ccccc12)C(=O)NCc1ccc(F)cc1` the Potency was inconclusive [inhibitor, partial curve, poor fit]. `CC(/C=C/c1ccccc1F)=N\NC(=O)c1ccc(Cl)cc1` was tested, and the Potency was inconclusive [inhibitor, partial curve, poor fit]. `O=C1CC(N2CCN(c3ccccn3)CC2)C(=O)N1c1ccc(F)cc1` (configuration not stated) was tested, and the “activity change, negative = inhibition” value was inactive: 0.445%. For `COc1ccc(C#CC2=CC(=O)CC(C)(C)C2)cc1`, the Potency was inconclusive [inhibitor, single point]. `CCOc1ccc(NS(=O)(=O)c2ccc3c(c2)CCN3C(C)=O)cc1` was tested, and the Potency was “inactive”. In the case of `O=C(Nc1ccc(F)cc1F)NC1CCN(S(=O)(=O)c2ccc(F)cc2)CC1`, the Potency is reported as inconclusive [inhibitor, partial curve]. With `Cc1noc2ncnc(SCc3ccc(C(F)(F)F)cc3)c12` the Potency was inconclusive [inhibitor, single point]. In the case of `NC(=O)c1nsc(C(=O)N(Cc2ccc(F)cc2)C(C(=O)NC2CCCC2)c2ccco2)c1N` (configuration not stated), the “activity change, negative = inhibition” value is reported as inactive: -10.7%. `CCN(Cc1ccccc1)C(c1cccc(C#N)c1)c1nnnn1C(C)(C)C` (configuration not stated) was tested, and the Potency was inconclusive [inhibitor, single point]. In the case of `O=C(OCC(=O)N1CCC(Cc2ccccc2)CC1)c1cc(Cl)ccc1O`, the Potency is reported as inconclusive [inhibitor, single point]. In the case of `COc1cc(/C=C(/C#N)C(=O)NCCCc2ccccc2)ccc1OCC(=O)O`, the “activity change, negative = inhibition” value is reported as inactive: 50.7%. `CCCOc1ccc(C2c3c(oc4cc(C)c(C)cc4c3=O)C(=O)N2CCCN(C)C)cc1` (configuration not stated) was tested, and the Potency was inconclusive [inhibitor, single point]. `Nc1[nH]c(C(=O)c2ccccc2)c(-c2ccc(Br)cc2)c1C(=O)c1ccc(Br)cc1` was tested, and the “activity change, negative = inhibition” value was inactive: 3.14%. With `C=CCN(c1ccccc1Cl)S(=O)(=O)c1cc(C(=O)N2CCCC2)ccc1Cl` the Potency was inconclusive [inhibitor, single point]. For `COc1ccc(N(CC(=O)NCc2ccccc2OC)S(=O)(=O)c2ccc(C)cc2)cc1Cl`, the Potency was inconclusive [inhibitor, partial curve, poor fit].
